# Some of the results follow.
# What was measured:
# Assay in all cases: glycan array binding signal (z-score within array); higher = stronger binding
# Conditions in all cases: glycan notation: IUPAC condensed, linker removed
# [1] = molecular target: Neu5Ac(a2-3)Gal(b1-4)GlcNAc(b1-2)[Neu5Ac(a2-3)Gal(b1-4)GlcNAc(b1-4)]Man(a1-3)[GlcNAc(b1-4)][Neu5Ac(a2-3)Gal(b1-4)GlcNAc(b1-2)[Neu5Ac(a2-3)Gal(b1-4)GlcNAc(b1-6)]Man(a1-6)]Man(b1-4)GlcNAc(b1-4)GlcNAc
# How it was run: (§1)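 From the Consortium for Functional Glycomics database, 3228 arrays were curated, keeping only those whose protein sequence was available. Binding is given as a within-array Z-score averaged across arrays sharing a protein sequence and across linkers. Negative Z-scores can be read as non-binding.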
# [2] = molecular target: Neu5Ac(a2-3)Gal(b1-4)GlcNAc(b1-2)[Neu5Ac(a2-3)Gal(b1-4)GlcNAc(b1-4)]Man(a1-3)[GlcNAc(b1-4)][Neu5Ac(a2-3)Gal(b1-4)GlcNAc(b1-4)Man(a1-6)]Man(b1-4)GlcNAc(b1-4)GlcNAc
# How it was run: as §1
# [3] = molecular target: Neu5Ac(a2-3)Gal(b1-4)GlcNAc(b1-2)[Neu5Ac(a2-3)Gal(b1-4)GlcNAc(b1-6)]Man(a1-6)[Neu5Ac(a2-3)Gal(b1-4)GlcNAc(b1-2)Man(a1-3)][GlcNAc(b1-4)]Man(b1-4)GlcNAc(b1-4)GlcNAc
# How it was run: as §1
# [4] = molecular target: Neu5Ac(a2-3)Gal(b1-4)GlcNAc(b1-3)Gal
# How it was run: as §1
# [5] = molecular target: Neu5Ac(a2-3)Gal(b1-4)GlcNAc(b1-3)Gal(b1-3)GlcNAc
# How it was run: as §1
# [6] = molecular target: Neu5Ac(a2-3)Gal(b1-4)GlcNAc(b1-3)Gal(b1-4)GlcNAc
# How it was run: as §1
# [7] = molecular target: Neu5Ac(a2-3)Gal(b1-4)GlcNAc(b1-3)Gal(b1-4)GlcNAc(b1-2)Man(a1-3)[Neu5Ac(a2-3)Gal(b1-4)GlcNAc(b1-3)Gal(b1-4)GlcNAc(b1-2)Man(a1-6)]Man(b1-4)GlcNAc(b1-4)GlcNAc
# How it was run: as §1
# [8] = molecular target: Neu5Ac(a2-3)Gal(b1-4)GlcNAc(b1-3)Gal(b1-4)GlcNAc(b1-3)Gal(b1-4)GlcNAc
# How it was run: as §1
# [9] = molecular target: Neu5Ac(a2-3)Gal(b1-4)GlcNAc(b1-3)Gal(b1-4)GlcNAc(b1-3)Gal(b1-4)GlcNAc(b1-2)Man(a1-3)[Neu5Ac(a2-3)Gal(b1-4)GlcNAc(b1-3)Gal(b1-4)GlcNAc(b1-3)Gal(b1-4)GlcNAc(b1-2)Man(a1-6)]GalNAc
# How it was run: as §1
# [10] = molecular target: Neu5Ac(a2-3)Gal(b1-4)GlcNAc(b1-3)Gal(b1-4)GlcNAc(b1-3)GalNAc
# How it was run: as §1
# [11] = molecular target: Neu5Ac(a2-3)Gal(b1-4)GlcNAc(b1-3)Gal(b1-4)GlcNAc(b1-3)[Neu5Ac(a2-3)Gal(b1-4)GlcNAc(b1-3)Gal(b1-4)GlcNAc(b1-6)]GalNAc
# How it was run: as §1
# [12] = molecular target: Neu5Ac(a2-3)Gal(b1-4)GlcNAc(b1-3)Gal(b1-4)GlcNAc(b1-6)[Gal(b1-3)]GalNAc
# How it was run: as §1
# [13] = molecular target: Neu5Ac(a2-3)Gal(b1-4)GlcNAc(b1-3)Gal(b1-4)[Fuc(a1-3)]GlcNAc
# How it was run: as §1
# [14] = molecular target: Neu5Ac(a2-3)Gal(b1-4)GlcNAc(b1-3)GalNAc
# How it was run: as §1
# [15] = molecular target: Neu5Ac(a2-3)Gal(b1-4)GlcNAc(b1-3)[Neu5Ac(a2-3)Gal(b1-4)GlcNAc(b1-6)]GalNAc
# How it was run: as §1
# [16] = molecular target: Neu5Ac(a2-3)Gal(b1-4)GlcNAc(b1-6)GalNAc
# How it was run: as §1
# [17] = molecular target: Neu5Ac(a2-3)Gal(b1-4)GlcNAc(b1-6)[Gal(b1-3)]GalNAc
# How it was run: as §1
# [18] = molecular target: Neu5Ac(a2-3)Gal(b1-4)GlcNAc(b1-6)[Neu5Ac(a2-3)Gal(b1-3)]GalNAc
# How it was run: as §1
# [19] = molecular target: Neu5Ac(a2-3)Gal(b1-4)GlcNAc6S
# How it was run: as §1
# [20] = molecular target: Neu5Ac(a2-3)Gal(b1-4)[Fuc(a1-3)]GlcNAc
# How it was run: as §1
# [21] = molecular target: Neu5Ac(a2-3)Gal(b1-4)[Fuc(a1-3)]GlcNAc(b1-2)Man
# How it was run: as §1
# [22] = molecular target: Neu5Ac(a2-3)Gal(b1-4)[Fuc(a1-3)]GlcNAc(b1-3)Gal
# How it was run: as §1
# [23] = molecular target: Neu5Ac(a2-3)Gal(b1-4)[Fuc(a1-3)]GlcNAc(b1-3)Gal(b1-4)GlcNAc
# How it was run: as §1
# [24] = molecular target: Neu5Ac(a2-3)Gal(b1-4)[Fuc(a1-3)]GlcNAc(b1-3)Gal(b1-4)[Fuc(a1-3)]GlcNAc(b1-3)Gal(b1-4)[Fuc(a1-3)]GlcNAc
# How it was run: as §1
# [25] = molecular target: Neu5Ac(a2-3)Gal(b1-4)[Fuc(a1-3)]GlcNAc(b1-3)GalNAc
# How it was run: as §1
# [26] = molecular target: Neu5Ac(a2-3)Gal(b1-4)[Fuc(a1-3)]GlcNAc(b1-6)[Gal(b1-3)]GalNAc
# How it was run: as §1
# [27] = molecular target: Neu5Ac(a2-3)Gal(b1-4)[Fuc(a1-3)]GlcNAc(b1-6)[Neu5Ac(a2-3)Gal(b1-3)]GalNAc
# How it was run: as §1
# [28] = molecular target: Neu5Ac(a2-3)Gal(b1-4)[Fuc(a1-3)]GlcNAc6S
# How it was run: as §1
# [29] = molecular target: Neu5Ac(a2-3)Gal6S(b1-4)GlcNAc
# How it was run: as §1
# [30] = molecular target: Neu5Ac(a2-3)Gal6S(b1-4)[Fuc(a1-3)]GlcNAc
# How it was run: as §1
# [31] = molecular target: Neu5Ac(a2-3)GalNAc
# How it was run: as §1
# [32] = molecular target: Neu5Ac(a2-3)GalNAc(b1-4)GlcNAc
# How it was run: as §1
# [33] = molecular target: Neu5Ac(a2-3)[GalNAc(b1-4)]Gal(b1-4)Glc
# How it was run: as §1
# [34] = molecular target: Neu5Ac(a2-3)[GalNAc(b1-4)]Gal(b1-4)GlcNAc
# How it was run: as §1
# [35] = molecular target: Neu5Ac(a2-3)[GalNAc(b1-4)]Gal(b1-4)GlcNAc(b1-3)GalNAc
# How it was run: as §1
# [36] = molecular target: Neu5Ac(a2-3)[Neu5Ac(a2-6)]GalNAc
# How it was run: as §1
# [37] = molecular target: Neu5Ac(a2-6)Gal
# How it was run: as §1
# [38] = molecular target: Neu5Ac(a2-6)Gal(b1-3)GlcNAc(b1-3)[Gal(b1-4)GlcNAc(b1-6)]Gal(b1-4)Glc
# How it was run: as §1
# [39] = molecular target: Neu5Ac(a2-6)Gal(b1-4)Glc
# How it was run: as §1
# [40] = molecular target: Neu5Ac(a2-6)Gal(b1-4)GlcNAc
# How it was run: as §1
# [41] = molecular target: Neu5Ac(a2-6)Gal(b1-4)GlcNAc(b1-2)Man
# How it was run: as §1
# [42] = molecular target: Neu5Ac(a2-6)Gal(b1-4)GlcNAc(b1-2)Man(a1-3)Man(b1-4)GlcNAc(b1-4)GlcNAc
# How it was run: as §1
# [43] = molecular target: Neu5Ac(a2-6)Gal(b1-4)GlcNAc(b1-2)Man(a1-3)[Gal(b1-4)GlcNAc(b1-2)Man(a1-6)]Man(b1-4)GlcNAc(b1-4)GlcNAc
# How it was run: as §1
# [44] = molecular target: Neu5Ac(a2-6)Gal(b1-4)GlcNAc(b1-2)Man(a1-3)[GlcNAc(b1-2)Man(a1-6)]Man(b1-4)GlcNAc(b1-4)GlcNAc
# How it was run: as §1
# [45] = molecular target: Neu5Ac(a2-6)Gal(b1-4)GlcNAc(b1-2)Man(a1-3)[GlcNAc(b1-4)][Neu5Ac(a2-6)Gal(b1-4)GlcNAc(b1-2)Man(a1-6)]Man(b1-4)GlcNAc(b1-4)GlcNAc
# How it was run: as §1
binder,measurement,setting,value
FGFR2-Fc (protein) MVNVTDAISSGDDEDDTDGAEDFVSENSNNKRAPYWTNTEKMEKRLHAVPAANTVKFRCPAGGNPMPTMRWLKNGKEFKQEHRIGGYKVRNQHWSLIMESVVPSDKGNYTCVVENEYGSINHTYHLDVVERSPHRPILQAGLPANASTVVGGDVEFVCKVYSDAQPHIQWIKHVEKNGSKYGPDGLPYLKVLKHSGINSSNAEVLALFNVTEADAGEYICKVSNYIGQANQSAWLTVLPKQQAPGREKEITASPDYLETRPLEQKLISEEDLAANDILDYKDDDDKV,glycan array binding signal (z-score),[1],0.283
same,glycan array binding signal (z-score),[2],-0.242
same,glycan array binding signal (z-score),[3],0.107
same,glycan array binding signal (z-score),[4],0.068
same,glycan array binding signal (z-score),[5],-0.431
same,glycan array binding signal (z-score),[6],0.322
same,glycan array binding signal (z-score),[7],-0.273
same,glycan array binding signal (z-score),[8],-0.144
same,glycan array binding signal (z-score),[9],0.311
same,glycan array binding signal (z-score),[10],0.123
same,glycan array binding signal (z-score),[11],0.211
same,glycan array binding signal (z-score),[12],-0.459
same,glycan array binding signal (z-score),[13],-0.426
same,glycan array binding signal (z-score),[14],0.182
same,glycan array binding signal (z-score),[15],0.313
same,glycan array binding signal (z-score),[16],0.126
same,glycan array binding signal (z-score),[17],0.924
same,glycan array binding signal (z-score),[18],0.194
same,glycan array binding signal (z-score),[19],0.533
same,glycan array binding signal (z-score),[20],-0.609
same,glycan array binding signal (z-score),[21],-0.19
same,glycan array binding signal (z-score),[22],1.09
same,glycan array binding signal (z-score),[23],-0.296
same,glycan array binding signal (z-score),[24],-0.446
same,glycan array binding signal (z-score),[25],0.35
same,glycan array binding signal (z-score),[26],0.455
same,glycan array binding signal (z-score),[27],-0.328
same,glycan array binding signal (z-score),[28],-0.024
same,glycan array binding signal (z-score),[29],0.354
same,glycan array binding signal (z-score),[30],-0.696
same,glycan array binding signal (z-score),[31],0.151
same,glycan array binding signal (z-score),[32],0.034
same,glycan array binding signal (z-score),[33],-0.275
same,glycan array binding signal (z-score),[34],-0.479
same,glycan array binding signal (z-score),[35],-0.14
same,glycan array binding signal (z-score),[36],0.729
same,glycan array binding signal (z-score),[37],-0.146
same,glycan array binding signal (z-score),[38],-0.257
same,glycan array binding signal (z-score),[39],-0.521
same,glycan array binding signal (z-score),[40],-0.018
same,glycan array binding signal (z-score),[41],-0.006
same,glycan array binding signal (z-score),[42],-0.132
same,glycan array binding signal (z-score),[43],-0.297
same,glycan array binding signal (z-score),[44],-0.022
same,glycan array binding signal (z-score),[45],-0.136

# Reference: the supplement of paper PMC8728848
